Assay results taken from the supplement of paper PMC3334620.
In all, about 33,000 sequences were measured (“E-score (-0.5 to 0.5)”: median about -0.035, highest 2% from about 0.35 on). This is one part of the list.

biological target: T1, Pdr3 (UniProt P33200); experiment: PBM E-score (8-mer binding enrichment) (E-score (-0.5 to 0.5)); higher = stronger / more preferred TF binding; most listed sequences are background and not binding sites; settings: protein concentration: 200 nM; construct: GST-full length
T1 sequence: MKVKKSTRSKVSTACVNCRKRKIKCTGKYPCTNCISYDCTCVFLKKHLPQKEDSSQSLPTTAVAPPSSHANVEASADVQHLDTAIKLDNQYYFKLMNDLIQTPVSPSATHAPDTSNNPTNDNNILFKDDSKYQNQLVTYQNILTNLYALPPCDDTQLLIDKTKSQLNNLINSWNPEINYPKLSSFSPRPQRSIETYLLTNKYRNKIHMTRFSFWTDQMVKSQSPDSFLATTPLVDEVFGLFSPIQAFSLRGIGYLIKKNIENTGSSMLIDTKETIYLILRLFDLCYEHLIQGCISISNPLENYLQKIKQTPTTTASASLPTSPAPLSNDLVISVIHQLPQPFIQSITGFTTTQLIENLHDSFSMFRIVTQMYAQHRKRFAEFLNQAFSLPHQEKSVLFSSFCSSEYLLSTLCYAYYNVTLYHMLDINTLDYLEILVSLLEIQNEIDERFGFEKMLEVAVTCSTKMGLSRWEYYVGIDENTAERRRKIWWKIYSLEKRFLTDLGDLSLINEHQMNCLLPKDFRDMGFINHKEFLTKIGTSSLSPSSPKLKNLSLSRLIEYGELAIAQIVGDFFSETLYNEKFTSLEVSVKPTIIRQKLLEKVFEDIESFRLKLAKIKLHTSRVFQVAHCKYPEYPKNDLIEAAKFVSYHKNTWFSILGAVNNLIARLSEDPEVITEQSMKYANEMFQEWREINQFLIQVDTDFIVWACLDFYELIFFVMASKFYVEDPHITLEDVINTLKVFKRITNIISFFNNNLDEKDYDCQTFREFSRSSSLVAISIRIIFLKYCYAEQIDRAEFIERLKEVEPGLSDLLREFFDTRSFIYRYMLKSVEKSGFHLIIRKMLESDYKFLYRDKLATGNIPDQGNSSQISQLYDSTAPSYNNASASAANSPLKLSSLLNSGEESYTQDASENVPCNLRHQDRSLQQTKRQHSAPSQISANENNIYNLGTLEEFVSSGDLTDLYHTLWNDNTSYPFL
Method in brief: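 E-scores (a modified Wilcoxon-Mann-Whitney statistic) were assigned by the Universal PBM Analysis Suite to every ungapped eight-base word pooled with its reverse complement. The input came from universal all-10-mer Agilent arrays made double-stranded by primer extension and probed with GST-tagged yeast transcription factors at about 100-200 nM. Fluorescent anti-GST detected bound protein, and masliner normalised the scans.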

Going from CAGACGCA to GATGGGAA, the “PBM E-score” value falls from 0.0386 to -0.0825.

Going from CGCCCCGA to AGGTTAAG, the “PBM E-score” value falls from 0.273 to -0.299.

Going from CCCCAACA to CCTGAAGG, the “PBM E-score” value rises from -0.274 to -0.183.

Compared with GCACAAAC, CAAGTCAA is lower in “PBM E-score” value: -0.00413 for the first, -0.168 for the second.

Going from ACAGTCCA to TAATGCTA, the “PBM E-score” value rises from -0.158 to 0.0108.

Going from GGTTCCTA to ACAAGAGG, the “PBM E-score” value falls from 0.00217 to -0.0926.

First: GATGGGCA
Second: ATCTCCAG
The “PBM E-score” value of the first is higher: -0.0933 for the first, -0.1 for the second.

First: CGCTTCCC
Second: AAAATCTG
The “PBM E-score” value of the first is higher: 0.0936 for the first, 0.0512 for the second.

Compared with TAGTAGCA, AAAGCACC is lower in “PBM E-score” value: -0.0498 for the first, -0.125 for the second.

First: ATCTGTGA
Second: CGTATGAG
The “PBM E-score” value of the first is higher: 0.0204 for the first, -0.0564 for the second.

Going from CAACCATG to AGCTTGAG, the “PBM E-score” value falls from 0.0916 to -0.147.

Compared with GTGGCTCA, ATTTTCTC is higher in “PBM E-score” value: -0.125 for the first, 0.00817 for the second.

Going from AGTAGCCA to AGATTCGA, the “PBM E-score” value rises from -0.348 to -0.0157.

Compared with AAAGACCT, GATTGATA is lower in “PBM E-score” value: -0.0672 for the first, -0.0756 for the second.

First: CATGCTGC
Second: CTGATAGA
The “PBM E-score” value of the first is lower: -0.174 for the first, -0.118 for the second.

Going from CTCATGCA to TTATTAAA, the “PBM E-score” value rises from -0.171 to -0.0231.

First: GGCATGCC
Second: CTTGTGAA
The “PBM E-score” value of the first is higher: 0.324 for the first, -0.105 for the second.

Going from AACGTCAA to AATATGGT, the “PBM E-score” value rises from -0.146 to 0.183.

First: ATAGGACC
Second: AAACGCCA
The “PBM E-score” value of the first is lower: -0.125 for the first, 0.124 for the second.

Going from CGTAGTCC to AAGGTGCA, the “PBM E-score” value rises from -0.119 to -0.0384.

Compared with CCCTTATA, AAGGAAAG is higher in “PBM E-score” value: -0.0578 for the first, -0.0481 for the second.

First: CTCAAGTC
Second: AACGGGGC
The “PBM E-score” value of the first is lower: -0.237 for the first, 0.0961 for the second.

Compared with GGCTCACC, TGCAACAA is lower in “PBM E-score” value: -0.156 for the first, -0.162 for the second.

Going from GTATTAGA to GCGGAGCC, the “PBM E-score” value rises from 0.0559 to 0.296.

First: TCAAACCA
Second: CACTCTAC
The “PBM E-score” value of the first is higher: 0.165 for the first, -0.0177 for the second.

Compared with ACCAGCAG, CGGTGGTC is higher in “PBM E-score” value: -0.264 for the first, 0.18 for the second.

First: ACATTCAT
Second: AGCCAGGA
The “PBM E-score” value of the first is higher: 0.0569 for the first, -0.151 for the second.

First: ATCGGGCA
Second: CTCTATCC
The “PBM E-score” value of the first is higher: 0.0375 for the first, -0.0282 for the second.

Going from CTTGCTCC to GTCGACTA, the “PBM E-score” value rises from -0.00184 to 0.0751.

First: GGTTCTAC
Second: AATTCAAG
The “PBM E-score” value of the first is higher: -0.112 for the first, -0.13 for the second.

Going from ACTTGGGA to GCTCAAAA, the “PBM E-score” value rises from -0.118 to -0.0599.

Compared with ATAAGATG, ATACCACC is higher in “PBM E-score” value: -0.0842 for the first, 0.162 for the second.

Going from CATGCTAG to CATATGTC, the “PBM E-score” value rises from -0.223 to -0.0367.

First: CTCCCGTA
Second: AGCCGAAA
The “PBM E-score” value of the first is lower: -0.0071 for the first, 0.14 for the second.

Going from CGCTGACA to GGCTTGCA, the “PBM E-score” value falls from 0.0155 to -0.167.

Going from GTGCTAAC to AATTTACC, the “PBM E-score” value falls from 0.0801 to 0.00226.

Going from TGGATTAA to ACATAGAG, the “PBM E-score” value falls from -0.102 to -0.203.

Going from CAGGAAGA to ACGTCTGA, the “PBM E-score” value falls from 0.0315 to -0.0905.

First: ACAATGCT
Second: CTGACACC
The “PBM E-score” value of the first is lower: -0.171 for the first, -0.0269 for the second.

Compared with ACGGACCA, ATCATATA is lower in “PBM E-score” value: 0.359 for the first, -0.0266 for the second.

First: CCACAATC
Second: CTCCTATA
The “PBM E-score” value of the first is higher: -0.149 for the first, -0.357 for the second.

Compared with CGTGCCTC, GCACTTAC is lower in “PBM E-score” value: -0.0179 for the first, -0.155 for the second.

First: TAAGGACA
Second: GAACTGAA
The “PBM E-score” value of the first is lower: -0.149 for the first, 0.108 for the second.

First: AGTCCGGC
Second: CCTCGCTC
The “PBM E-score” value of the first is higher: 0.216 for the first, 0.102 for the second.

First: TGGTTCAA
Second: ACGTGACT
The “PBM E-score” value of the first is higher: -0.00904 for the first, -0.294 for the second.

First: CCTAGCAA
Second: GACACGAC
The “PBM E-score” value of the first is lower: -0.294 for the first, 0.0509 for the second.

Compared with CAAAGAGG, GATTCATA is higher in “PBM E-score” value: -0.176 for the first, -0.0226 for the second.

Going from AATCGACT to CTAGGAGC, the “PBM E-score” value rises from -0.208 to -0.12.

Compared with CAATAGCC, GCCCCCAA is lower in “PBM E-score” value: -0.221 for the first, -0.272 for the second.

Going from ACATTGGT to GGTAGAAC, the “PBM E-score” value rises from -0.14 to -0.0218.

First: ACTATAAG
Second: GAGGTGGC
The “PBM E-score” value of the first is higher: -0.165 for the first, -0.208 for the second.

Going from CGACCGCA to AATGACTA, the “PBM E-score” value falls from 0.158 to -0.208.

Compared with AAGATGAT, ATGTGGGG is higher in “PBM E-score” value: -0.298 for the first, -0.241 for the second.

Compared with AGCTGTAG, AAGGTAGA is lower in “PBM E-score” value: -0.0614 for the first, -0.136 for the second.

First: AGATTTAA
Second: CACAGGTG
The “PBM E-score” value of the first is higher: 0.0063 for the first, -0.194 for the second.

First: CTGCCCAA
Second: GTTGACAA
The “PBM E-score” value of the first is higher: 0.0511 for the first, 0.0346 for the second.

Going from AACTACCC to ATACGTGC, the “PBM E-score” value rises from -0.129 to 0.0169.

First: GAGTTGCA
Second: CTCGAATA
The “PBM E-score” value of the first is higher: -0.047 for the first, -0.107 for the second.

Going from CCGCACAA to ATGCACCG, the “PBM E-score” value rises from 0.108 to 0.122.

Compared with AAAGAATT, ACACGCGC is higher in “PBM E-score” value: 0.0723 for the first, 0.0939 for the second.

CTAAGGCA and AATCGTAG are the same in “PBM E-score” value: -0.135 for the first, -0.135 for the second.

Compared with CGTCCCAC, AGCTATCA is lower in “PBM E-score” value: 0.0401 for the first, -0.0259 for the second.

Compared with GTCCAGAC, CAGGGTAG is higher in “PBM E-score” value: -0.291 for the first, -0.198 for the second.

Going from AGTCTACG to AGCAACAC, the “PBM E-score” value rises from -0.175 to -0.0384.

First: GGTCCACC
Second: GTAAGCAC
The “PBM E-score” value of the first is higher: -0.036 for the first, -0.245 for the second.

Going from TACAAGAA to CCGGGCTA, the “PBM E-score” value rises from -0.0181 to 0.25.

Going from CTAGTCAC to GAAAGAAA, the “PBM E-score” value rises from -0.159 to 0.0628.

First: GCTACTGA
Second: CAGTGACC
The “PBM E-score” value of the first is higher: 0.00622 for the first, 0.00313 for the second.

First: CCTGCAAA
Second: AACGGTAA
The “PBM E-score” value of the first is lower: -0.173 for the first, 0.0993 for the second.

Going from ACTCCCGA to GTAGGGTA, the “PBM E-score” value falls from 0.0347 to -0.00998.

First: CGGATTGA
Second: AACGTGAC
The “PBM E-score” value of the first is higher: 0.315 for the first, -0.0631 for the second.

First: CGGTAGAA
Second: ATTGACGG
The “PBM E-score” value of the first is lower: -0.215 for the first, 0.16 for the second.

Compared with CCGTTAAG, GATCAGCC is lower in “PBM E-score” value: 0.121 for the first, -0.0112 for the second.

Going from TGCAATAA to AATCAGTG, the “PBM E-score” value falls from -0.00943 to -0.104.

Going from AATGATGC to AGCAAAAC, the “PBM E-score” value falls from 0.177 to -0.0852.

Going from AGTTTGGG to AGCGGATC, the “PBM E-score” value rises from 0.0572 to 0.374.

Compared with AAGTGGTC, CTGCCATC is lower in “PBM E-score” value: 0.00637 for the first, -0.0435 for the second.

First: GAGGTACC
Second: CGCATCTA
The “PBM E-score” value of the first is lower: 0.00932 for the first, 0.225 for the second.

First: CATGTCCC
Second: AAATTATG
The “PBM E-score” value of the first is higher: 0.0958 for the first, -0.0382 for the second.

Going from ACCCGCTA to AGAAGTAA, the “PBM E-score” value falls from 0.0768 to -0.134.

First: ATTCTGTA
Second: CGACACCC
The “PBM E-score” value of the first is lower: -0.103 for the first, -0.0348 for the second.

First: CTTTTGGC
Second: AATGCAAC
The “PBM E-score” value of the first is higher: -0.0694 for the first, -0.217 for the second.

Compared with ATACTTAA, TAATTCGA is lower in “PBM E-score” value: -0.0649 for the first, -0.234 for the second.

Going from CTGACATC to ATTTCAGC, the “PBM E-score” value falls from 0.0447 to -0.05.

Going from CCGCAGTA to ACATTAGT, the “PBM E-score” value falls from 0.0477 to -0.0557.

Compared with GTAAGCAA, TACGAGGA is higher in “PBM E-score” value: -0.0781 for the first, 0.00203 for the second.
